Laboratory results from the supplement of paper PMC10369915.
This is one part of the list. Cut-off read from the data, not from the text of the source: active = 3.2 or more and inactive = the rest. Most of these values are background signal.

target: SHP2 C-SH2 domain E139D; experiment: enrichment score (SH2-bound / input frequency) (ratio); bacterial display of known human phosphotyrosine sites (pTyr-Var adds point mutants) read by sequencing; higher = stronger binding; tyrosines were phosphorylated by kinases first; details: peptide library: pTyr-Var
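Note: displayed peptides selected on beads carrying the immobilized SH2 domain, with library peptides lacking any tyrosine serving as negative controls.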

Row | Binder | enrichment score
1 | RAMRRYLERGE [ERBB3_Y680] | inactive: 0.232
2 | RAMRRYLEWGE [ERBB3_Y680_R683W] | inactive: 0.251
3 | SPPPAYTPMSG [ERBB4_Y1056] | inactive: 0.604
4 | GDFLSYREFHS [ERBIN_Y1107_YF] | inactive: 1.01
5 | TYVVLYDAELT [ERCC4_Y581_R576T] | inactive: 2.21
6 | TFVVLYDAELT [ERCC4_Y581_R576T_YF] | inactive: 2.66
7 | RFVVLYDAELT [ERCC4_Y581_YF] | inactive: 1.8
8 | RQLEIYRASRP [ERCC4_Y594] | inactive: 0.373
9 | YFCRWYRNRKS [EREG_Y144] | inactive: 0.282
10 | FFCRWYRNRKS [EREG_Y144_YF] | inactive: 0.313
11 | RLQEGYDHSYY [ESD_Y258] | inactive: 0.672
12 | DYDHSYYFIAT [ESD_Y262_G257D] | inactive: 0.597
13 | GSETPYVDRTP [ESS2_Y335] | inactive: 0.453
14 | GSETPYMDRTP [ESS2_Y335_V336M] | inactive: 0.387
15 | ALRASYTPSPA [ESS2_Y418] | inactive: 0.608
16 | ALRASYTPSPV [ESS2_Y418_A423V] | inactive: 0.864
17 | NNHGNYIVLLG [ETFDH_Y172_R175L] | inactive: 1.15
18 | SCTFTCLLGDR [ETHE1_Y38_Y38C] | inactive: 2.81
19 | DPASAYADEVK [ETNPPL_Y189_S185P] | inactive: 0.552

target: SHP2 C-SH2 domain wild-type; experiment: as above; details: peptide library: pTyr-Var

Row | Binder | enrichment score
20 | RAMRRYLERGE [ERBB3_Y680] | inactive: 0.19
21 | RAMRRYLEWGE [ERBB3_Y680_R683W] | inactive: 0.262
22 | SPPPAYTPMSG [ERBB4_Y1056] | inactive: 0.452
23 | GDFLSYREFHS [ERBIN_Y1107_YF] | inactive: 0.958
24 | TYVVLYDAELT [ERCC4_Y581_R576T] | inactive: 2
25 | TFVVLYDAELT [ERCC4_Y581_R576T_YF] | inactive: 2.64
26 | RFVVLYDAELT [ERCC4_Y581_YF] | inactive: 1.87
27 | RQLEIYRASRP [ERCC4_Y594] | inactive: 0.44
28 | YFCRWYRNRKS [EREG_Y144] | inactive: 0.302
29 | FFCRWYRNRKS [EREG_Y144_YF] | inactive: 0.264
30 | RLQEGYDHSYY [ESD_Y258] | inactive: 0.633
31 | DYDHSYYFIAT [ESD_Y262_G257D] | inactive: 1.1
32 | GSETPYVDRTP [ESS2_Y335] | inactive: 0.387
33 | GSETPYMDRTP [ESS2_Y335_V336M] | inactive: 0.479
34 | ALRASYTPSPA [ESS2_Y418] | inactive: 0.663
35 | ALRASYTPSPV [ESS2_Y418_A423V] | inactive: 0.896
36 | NNHGNYIVLLG [ETFDH_Y172_R175L] | inactive: 1.26
37 | SCTFTCLLGDR [ETHE1_Y38_Y38C] | inactive: 2.82
38 | DPASAYADEVK [ETNPPL_Y189_S185P] | inactive: 0.638

target: SHP2 N-SH2 domain L43F; experiment: as above; details: peptide library: pTyr-Var

Row | Binder | enrichment score
39 | RAMRRYLERGE [ERBB3_Y680] | inactive: 0.247
40 | RAMRRYLEWGE [ERBB3_Y680_R683W] | inactive: 0.208
41 | SPPPAYTPMSG [ERBB4_Y1056] | inactive: 0.561
42 | GDFLSYREFHS [ERBIN_Y1107_YF] | inactive: 1.01
43 | TYVVLYDAELT [ERCC4_Y581_R576T] | active: 3.52
44 | TFVVLYDAELT [ERCC4_Y581_R576T_YF] | inactive: 2.56
45 | RFVVLYDAELT [ERCC4_Y581_YF] | inactive: 1.81
46 | RQLEIYRASRP [ERCC4_Y594] | inactive: 0.42
47 | YFCRWYRNRKS [EREG_Y144] | inactive: 0.249
48 | FFCRWYRNRKS [EREG_Y144_YF] | inactive: 0.366
49 | RLQEGYDHSYY [ESD_Y258] | inactive: 0.636
50 | DYDHSYYFIAT [ESD_Y262_G257D] | inactive: 0.614
51 | GSETPYVDRTP [ESS2_Y335] | inactive: 0.361
52 | GSETPYMDRTP [ESS2_Y335_V336M] | inactive: 0.373
53 | ALRASYTPSPA [ESS2_Y418] | inactive: 0.67
54 | ALRASYTPSPV [ESS2_Y418_A423V] | inactive: 0.776
55 | NNHGNYIVLLG [ETFDH_Y172_R175L] | inactive: 1.07
56 | SCTFTCLLGDR [ETHE1_Y38_Y38C] | inactive: 2.84
57 | DPASAYADEVK [ETNPPL_Y189_S185P] | inactive: 0.566

target: SHP2 N-SH2 domain T42A; experiment: as above; details: peptide library: pTyr-Var

Row | Binder | enrichment score
58 | RAMRRYLERGE [ERBB3_Y680] | inactive: 0.253
59 | RAMRRYLEWGE [ERBB3_Y680_R683W] | inactive: 0.224
60 | SPPPAYTPMSG [ERBB4_Y1056] | inactive: 0.537
61 | GDFLSYREFHS [ERBIN_Y1107_YF] | inactive: 1.11
62 | TYVVLYDAELT [ERCC4_Y581_R576T] | active: 5.1
63 | TFVVLYDAELT [ERCC4_Y581_R576T_YF] | inactive: 2.41
64 | RFVVLYDAELT [ERCC4_Y581_YF] | inactive: 1.78
65 | RQLEIYRASRP [ERCC4_Y594] | inactive: 0.4
66 | YFCRWYRNRKS [EREG_Y144] | inactive: 0.228
67 | FFCRWYRNRKS [EREG_Y144_YF] | inactive: 0.242
68 | RLQEGYDHSYY [ESD_Y258] | inactive: 0.658
69 | DYDHSYYFIAT [ESD_Y262_G257D] | inactive: 0.755
70 | GSETPYVDRTP [ESS2_Y335] | inactive: 0.37
71 | GSETPYMDRTP [ESS2_Y335_V336M] | inactive: 0.48
72 | ALRASYTPSPA [ESS2_Y418] | inactive: 0.513
73 | ALRASYTPSPV [ESS2_Y418_A423V] | inactive: 0.767
74 | NNHGNYIVLLG [ETFDH_Y172_R175L] | inactive: 1.44
75 | SCTFTCLLGDR [ETHE1_Y38_Y38C] | inactive: 2.29
76 | DPASAYADEVK [ETNPPL_Y189_S185P] | inactive: 0.554

target: SHP2 N-SH2 domain T52S; experiment: as above; details: peptide library: pTyr-Var

Row | Binder | enrichment score
77 | RAMRRYLERGE [ERBB3_Y680] | inactive: 0.238
78 | RAMRRYLEWGE [ERBB3_Y680_R683W] | inactive: 0.229
79 | SPPPAYTPMSG [ERBB4_Y1056] | inactive: 0.491
80 | GDFLSYREFHS [ERBIN_Y1107_YF] | inactive: 1.26
81 | TYVVLYDAELT [ERCC4_Y581_R576T] | active: 3.59
82 | TFVVLYDAELT [ERCC4_Y581_R576T_YF] | inactive: 2.66
83 | RFVVLYDAELT [ERCC4_Y581_YF] | inactive: 1.78
84 | RQLEIYRASRP [ERCC4_Y594] | inactive: 0.446
85 | YFCRWYRNRKS [EREG_Y144] | inactive: 0.219
86 | FFCRWYRNRKS [EREG_Y144_YF] | inactive: 0.286
87 | RLQEGYDHSYY [ESD_Y258] | inactive: 0.526
88 | DYDHSYYFIAT [ESD_Y262_G257D] | inactive: 0.648
89 | GSETPYVDRTP [ESS2_Y335] | inactive: 0.429
90 | GSETPYMDRTP [ESS2_Y335_V336M] | inactive: 0.456
91 | ALRASYTPSPA [ESS2_Y418] | inactive: 0.659
92 | ALRASYTPSPV [ESS2_Y418_A423V] | inactive: 0.838
93 | NNHGNYIVLLG [ETFDH_Y172_R175L] | inactive: 1.33
94 | SCTFTCLLGDR [ETHE1_Y38_Y38C] | inactive: 2.7
95 | DPASAYADEVK [ETNPPL_Y189_S185P] | inactive: 0.604

target: SHP2 N-SH2 domain wild-type; experiment: as above; details: peptide library: pTyr-Var

Row | Binder | enrichment score
96 | RAMRRYLERGE [ERBB3_Y680] | inactive: 0.245
97 | RAMRRYLEWGE [ERBB3_Y680_R683W] | inactive: 0.214
98 | SPPPAYTPMSG [ERBB4_Y1056] | inactive: 0.593
99 | GDFLSYREFHS [ERBIN_Y1107_YF] | inactive: 0.962
100 | TYVVLYDAELT [ERCC4_Y581_R576T] | inactive: 1.85
101 | TFVVLYDAELT [ERCC4_Y581_R576T_YF] | inactive: 2.58
102 | RFVVLYDAELT [ERCC4_Y581_YF] | inactive: 1.9
103 | RQLEIYRASRP [ERCC4_Y594] | inactive: 0.581
104 | YFCRWYRNRKS [EREG_Y144] | inactive: 0.209
105 | FFCRWYRNRKS [EREG_Y144_YF] | inactive: 0.316
106 | RLQEGYDHSYY [ESD_Y258] | inactive: 0.883
107 | DYDHSYYFIAT [ESD_Y262_G257D] | inactive: 0.742
108 | GSETPYVDRTP [ESS2_Y335] | inactive: 0.371
109 | GSETPYMDRTP [ESS2_Y335_V336M] | inactive: 0.594
110 | ALRASYTPSPA [ESS2_Y418] | inactive: 0.77
111 | ALRASYTPSPV [ESS2_Y418_A423V] | inactive: 0.913
112 | NNHGNYIVLLG [ETFDH_Y172_R175L] | inactive: 0.886
113 | SCTFTCLLGDR [ETHE1_Y38_Y38C] | inactive: 2.69
114 | DPASAYADEVK [ETNPPL_Y189_S185P] | inactive: 0.63
